Test results as given in the supplement of paper PMC12217912.
The list shows a part of the results. Sequences were assembled here from the parent chain. Inactive controls read about 0.05.

B1: TEV protease; numbered along this chain (parent)
chain: MGESLFKGPRDYNPISSSICHLTNESDGHTTSLYGIGFGPFIITNKHLFRRNNGTLVVQSLHGVFKVKDTTTLQQHLVDGRDMIIIRMPKDFPPFPQKLKFREPQREERICLVTTNFQTKSMSSMVSDTSCTFPSGDGIFWKHWIQTKDGQCGSPLVSTRDGFIVGIHSASNFTNTNNYFTSVPKNFMELLTNQEAQQWVSGWRLNADSVLWGGHKVFMVKPEEPFQPVKEATQL

Variants of: B1
Test: raw area under fraction-flipped curve 0-4 h after induction (AUC4h, not background-subtracted), DNA-recorder readout of cleavage of the substrate (dimensionless); higher = more cleavage of the substrate by the protease variant
Details: temperature: 34 °C; time window: 0-4 h after rhamnose induction
Method: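 In vivo DNA recorder in E. coli TOP10(DE3) ΔrhaA at 34 °C. Each TEVp single-site mutant (parent TEVp 0) is paired with a single-site variant of the 7-mer TEVs (canonical ENLYFQ|S). The substrate sits between flexible linkers in a Bxb1-sfGFP-TEVs-SsrA fusion, so cleavage stabilises Bxb1 and speeds flipping of a recombination array, read by NGS. The value is the raw area under the fraction-flipped curve over 0-4 h after rhamnose induction (AUC4h), with ≥20 reads per time point. It is not background-subtracted; inactive controls average about 0.047.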
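Further: Bxb1 expression induced with 0.2% (w/v) L-rhamnose at OD600 near 0.5, cultures sampled hourly, flipped fraction per protease–substrate barcode pair counted by paired-end Illumina sequencing.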

Variant	area with substrate ENLYDQS	area with substrate ENLYEQS	area with substrate ENLYGQS	area with substrate ENLYHQS	area with substrate ENLYMQS	area with substrate ENLYNQS	area with substrate ENLYPQS	area with substrate ENLYQQS	area with substrate ENLYSQS	area with substrate ENLYWQS	area with substrate ENLYYQS	area with substrate ENLYKQS	area with substrate ENLYRQS	area with substrate ENLYVQS	area with substrate ENLYLQS	area with substrate ENLYTQS	area with substrate ENLYIQS
E103L	0.0823	0.106	0.0573	0.0758	0.121	0.0678	0.0703	0.0565	0.0735	0.0727	0.0718						
Q105C	0.0625	0.0594	0.074	0.0717	0.089	0.067	0.0704					0.0612	0.0703	0.116			
C111T	0.0769	0.0681	0.0672	0.0661		0.0699	0.0797				0.0462	0.0435	0.067	0.0703	0.0908	0.103	
C111Y	0.0476	0.0763	0.0701	0.0645			0.0821	0.071	0.0689	0.0884	0.0587	0.0599	0.0675				0.132
T114F	0.0678	0.0591		0.0588	0.0809	0.0671	0.0761	0.0608	0.069			0.0797				0.0949	0.162
S123K	0.06	0.0647		0.0655	0.0987	0.07	0.0912	0.0723		0.0699	0.0575	0.0641	0.0553	0.161		0.13	0.182
S124W	0.0699	0.0608		0.059	0.0666	0.0595	0.064	0.058	0.0684	0.0901	0.0528		0.0616	0.123			0.204
M125V	0.0554	0.0821		0.0676	0.0566	0.065			0.0583		0.0644	0.0449	0.0591	0.152			0.144
V126F	0.0726	0.059	0.0543	0.0708	0.099	0.0718	0.0829	0.0599	0.0761	0.129	0.0705		0.0557	0.125		0.104	
F133E	0.0474	0.0819	0.0704			0.0681	0.0656			0.132	0.0693	0.0704	0.0563	0.121	0.111	0.106	0.109
G150K	0.0641	0.0569	0.0553		0.0593		0.056	0.0667	0.058	0.0593	0.064	0.0671	0.0567	0.0531	0.0457	0.0522	0.0778
P155W	0.0539	0.0515	0.0524	0.0454	0.0481	0.0582	0.0569	0.0578	0.054	0.0561		0.0333	0.0593	0.0511	0.0516	0.0533	0.041
V157A	0.0504		0.0468						0.0725	0.0612			0.0669	0.115	0.0842		0.0744
D161C	0.0452	0.0585	0.0513	0.064	0.0613	0.0579	0.0647		0.0515		0.0649	0.0421	0.0636		0.0853	0.0654	0.0934
G162M	0.0591		0.0664		0.0711		0.0786			0.0874		0.0634	0.0586				0.108
F173A	0.0653	0.0564	0.0619	0.0532	0.0727	0.0594	0.0537			0.0757		0.056	0.0726	0.116	0.0806	0.0612	
N175C	0.0583	0.0714	0.0603	0.0548		0.0527	0.0605	0.0327		0.0623		0.0705		0.0974	0.0614	0.0537	0.0931
F180V	0.072	0.0477	0.0717	0.0549	0.0558	0.0346	0.0562	0.0569		0.0656	0.0529	0.0536	0.0517	0.0567		0.0445	0.0558
V183T	0.0628	0.0679	0.0671	0.0689	0.0947	0.0721	0.0961	0.0623	0.0677	0.0685	0.0627	0.0826		0.133			0.119
N186M	0.076	0.0733	0.0635	0.0459			0.0683	0.0604		0.0355		0.0645	0.0617		0.0485	0.069	
Q194R	0.0387	0.052	0.0642	0.0792	0.0762	0.056	0.0667	0.0667		0.105	0.059	0.0558	0.0618	0.139		0.0777	0.102
Q197G	0.0514	0.0659	0.049	0.0585	0.0744	0.0739		0.0594				0.0599				0.112	
Q198I	0.0958	0.0677	0.0604	0.0776	0.0756	0.0856	0.0646	0.0726	0.0714	0.0778	0.0599	0.0668		0.112			0.107
V200N	0.0786	0.0601					0.0631	0.057	0.0584			0.0657	0.0557	0.0851		0.0661	
S201W	0.0597	0.0571	0.0951	0.0488	0.0835	0.0612	0.0601	0.0254	0.0666	0.0692	0.0556	0.0583		0.072		0.0639	0.087
G202A	0.0655	0.0433		0.063	0.0811	0.0628		0.0464		0.0725	0.06	0.0301		0.0795		0.0645	0.092
R204T	0.0574	0.0649	0.0638	0.0581	0.0906	0.0689	0.0691	0.0469	0.0922	0.075	0.0636		0.0383	0.0612		0.0902	0.123
N206H	0.0524	0.0684	0.0666	0.067	0.0842	0.0662	0.075	0.0542	0.0676	0.0668	0.0568	0.0559	0.0439	0.116		0.081	0.107
